{
  "source": "patent US20030109503A1",
  "about": "“Pharmaceutical formulations comprising clavulanic acid alone or in combination with other beta-lactam antibiotics” (SmithKline Beecham p.l.c., priority 1995, published 2003)",
  "test_system": "S. pneumoniae N1387",
  "data": [
    {"compound": "CC1(C)S[C@@H]2[C@H](NC(=O)[C@H](N)c3ccc(O)cc3)C(=O)N2[C@H]1C(=O)O", "note": "[Amoxycillin, amoxycillin]", "values": [
      {"measurement": "lung bacterial counts versus non-treated control group at 96 h", "setting": "further study (FIG. 2), amoxycillin 200 mg/kg oral q12 h, 96 h", "value": "not significantly different from those in the non-treated control group"},
      {"measurement": "lung bacterial counts versus non-treated controls at 72 h", "setting": "initial study (FIG. 1), infection 7.0 log 10 cfu per rat, two days of twice-daily therapy, 72 h", "value": "not significantly different from those in the non-treated control group"}
    ]}
  ]
}
